The source of these data is PubChem BioAssay AID1346428 (National Center for Advancing Translational Sciences (NCATS), 2018).

The structures appear in SMILES notation. “And” between values parts separate entries of the source, which are not always exact repeats. Identical values can stand only once. Among all 48,000 compounds or so, about 1,200 (2.5%) were called active. Not shown: some 2% with an inconclusive outcome.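 The calls were made as follows: active = activation of at least 60% and not above a set upper limit (about 1 call in 100 departs from these limits); inconclusive = activation of 40% to 60%, or above that upper limit; inactive = activation under 40%.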 The list shows a part of the results.

UniProt O75388, sequence (O75388 whole entry, looked up, the tested form may be a part): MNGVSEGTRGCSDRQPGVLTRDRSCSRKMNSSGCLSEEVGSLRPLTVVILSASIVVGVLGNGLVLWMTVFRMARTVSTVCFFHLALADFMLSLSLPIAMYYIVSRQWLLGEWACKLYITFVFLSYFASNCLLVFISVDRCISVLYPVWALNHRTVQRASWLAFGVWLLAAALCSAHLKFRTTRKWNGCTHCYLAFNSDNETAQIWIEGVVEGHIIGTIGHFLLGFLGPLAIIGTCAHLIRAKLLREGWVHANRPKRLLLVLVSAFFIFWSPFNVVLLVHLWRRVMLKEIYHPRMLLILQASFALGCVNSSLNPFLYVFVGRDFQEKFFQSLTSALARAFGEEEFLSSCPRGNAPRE

In this assay the target is Probable G-protein coupled receptor 32 (Homo sapiens) (UniProt O75388). Put plainly: qHTS for Agonists of Human Resolvin D1 Receptor DRV1. Also: 0% is about no effect. Particulars: CHO-K1 GPR32 beta-arrestin PathHunter luminescence, 90 min; at 76.9 µM; hits give high values; zero percent set by DMSO-only wells. The gist of the method:
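Agonism was scored by beta-Gal fragment complementation (chemiluminescent read, 1 h detection at ambient temperature) reporting beta-arrestin binding to GPR32 in engineered CHO-K1 cells. Compound treatment lasted 90 min at 37 C, normalized to a DMSO basal control.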
For orientation: Quantitative high-throughput screening tests each substance at several concentrations.
With `CCc1ccc(NC(=O)C(C)n2nnc3sc(-c4ccccc4)cc3c2=O)cc1` (centres undefined), the activation was inactive: -5.89%.

On to `COc1ccc(NC(=O)/C(C#N)=C/c2cc(C)n(-c3ccc(F)cc3)c2C)cc1`, for which the activation is inactive: 7.48%.

Regarding `CCOC(=O)c1cccc(NC(=O)C2CCCN(S(=O)(=O)c3ccc4c(c3)oc(=O)n4C)C2)c1` (centres undefined), the activation is inactive: -8.38%.

With `Cc1ccc(-n2c(=O)c3c4c(sc3n(Cc3cccc(Cl)c3)c2=O)CCC4)cc1C`, the activation is inactive: 23.1%.

For `Cc1nc2nncn2c(NCc2ccc(Cl)cc2)c1C`, the activation was active: 76.3%.

Turning to `CC(C)C(=O)N(Cc1ccccc1)S(=O)(=O)c1ccc2c(c1)oc(=O)n2C`, the activation is inactive: 7.38%.

With `Cc1csc2nc(COC(=O)c3ccccc3NC(=O)COc3ccccc3F)cc(=O)n12`, the activation is inactive: 0.667%.

`Cc1ccc(Cl)cc1NC(=O)Cn1c(=O)n(CCCS(=O)(=O)C2CCCCC2)c(=O)c2ccccc21`: the activation was inactive: -15%.

`Cc1nc2nc(SCC(=O)O)nn2c(C)c1Cc1c(F)cccc1Cl`: the activation was inactive: -13%.

In the case of `Cc1ccc(CN(C(=O)COc2ccc(Cl)c(C)c2)C2CCS(=O)(=O)C2)o1` (centres undefined), the activation was inactive: -24.5%.

For `Cc1cccc2sc(N(CCCN(C)C)C(=O)c3ccc(Cl)s3)nc12`, the activation is inactive: 48.6%.

Consider `Cc1ccc(Nc2nc3c(S(=O)(=O)c4ccccc4)nnn3c3ccsc23)c(C)c1`, for which the activation was inactive: -1.1%.

On to `Cc1sc2ncn(CC(=O)N3CCN(c4ccc(F)cc4)CC3)c(=O)c2c1S(=O)(=O)N1CCCCC1`, for which the activation is inactive: -8.33%.

Regarding `Cc1ccc(S(=O)(=O)c2cn(CC(=O)Nc3ccc4c(c3)OCO4)c3ccccc3c2=O)cc1`, the activation is inactive: -5.08%.

On to `COc1cccc(NC(=O)CSc2nc(=O)n(Cc3ccco3)c3c2CCC3)c1`, for which the activation is inactive: -54.4%.

As for `Cc1cccc(NC(=O)Cn2nnc(C(=O)Nc3ccc(F)c(Cl)c3)c2N)c1`, the activation was inactive: -8.45%.

Regarding `COc1cc(C2C(C(=O)OCC(C)C)=C(C)N=C3SCCC(=O)N32)ccc1OCc1ccccc1` (centres undefined), the activation is inactive: -6.11%.

Turning to `CCN(CC)CCCNC(=O)CSc1c2c(nc3cc(Cl)ccc13)CCCC2`, the activation was inactive: -14.6%.

With `Cc1cc(C)c2nc(N(Cc3cccnc3)C(=O)c3ccc(S(=O)(=O)N(C)C)cc3)sc2c1`, the activation is inactive: 3.93%.

For the compound `CC1=C(C(=O)Nc2ccc(C)cc2C)C(C(C)C)n2nc(SCc3ccccc3Cl)nc2N1` (centres undefined), the activation was inactive: -0.891%.

Regarding `Cn1c(C(=O)NCc2ccccc2F)cc2oc3ccccc3c21`, the activation was inactive: 5.07%.

Consider `CCN1CCN(c2cc3c(cc2F)c(=O)c(S(=O)(=O)c2ccc(OC)cc2)cn3CC)CC1`, for which the activation is inactive: -6.85%.

As for `COc1cccc2sc(N(Cc3cccnc3)C(=O)Cc3ccccc3)nc12`, the activation is inactive: -26.3%.

For `O=C(c1ccco1)n1nc(-c2ccccc2)nc1NCc1ccc(F)cc1`, the activation is inactive: 20.2%.

Take `Cc1c(C(=O)Nc2cccc(C(F)(F)F)c2)sc2nc3n(c(=O)c12)CCCC3`: the activation is inactive: 26.4%.

Take `CCCCNC(=O)c1ccc2c(c1)NC(=O)C(CS(=O)(=O)Cc1cccc(C)c1)N2` (centres undefined): the activation was inactive: -15%.

Consider `COc1ccc2oc(-c3cccc(NC(=O)c4ccc(C#N)cc4F)c3)nc2c1`, for which the activation is inactive: 2.91%.

For `CCCCNc1ncnc2c1nnn2C`, the activation was inactive: -7.44%.

Consider `CCN1CCN(c2oc(-c3ccc(COc4ccc(C)cc4)o3)nc2C#N)CC1`, for which the activation was inactive: -18.4%.

As to `CC(C)Cn1c(=O)c2sccc2n2c(CCCC(=O)NCCc3ccccc3)nnc12`, the activation was inactive: -2.32%.

For the compound `COc1cccc(C(=O)NCC(=O)OCc2cc(=O)n3c(C)csc3n2)c1`, the activation is inactive: 1.5%.

In the case of `COc1ccc(C2CC(=O)N(Cc3ccc(F)cc3)c3ccccc3S2)cc1` (centres undefined), the activation is inactive: 14.6%.

Regarding `Cc1ccc(S(=O)(=O)N2CCN(Cc3noc(CCC(=O)N4CCCCC4)n3)CC2)c(C)c1`, the activation is inactive: -10.1%.

As to `COc1cccc(NC(=O)Cn2c(=O)n(-c3ccc(Cl)cc3)c(=O)c3oc4ccccc4c32)c1`, the activation was inactive: -6.5%.

Take `COc1cc(C(=O)Nc2ccc3[nH]c(=O)sc3c2)cc(OC)c1OC`: the activation was inactive: 2.62%.

In the case of `CC(C)C(=O)N1c2ncnn2C2(CCCCC2)[C@@H]2CCCC[C@@H]21`, the activation is inactive: -5.15%.

For `CC1=C(C(=O)Nc2cccnc2)C(c2cccc(F)c2)n2nc(SCc3ccccc3)nc2N1` (centres undefined), the activation was inactive: 19.3%.

Regarding `C[C@H](NC(=O)OC(C)(C)C)c1nnc(SCc2c(F)cccc2Cl)o1`, the activation was inactive: 20.1%.

Turning to `O=C(O)CP(=O)(O)O`, the activation is inactive: 4.82% and inactive: 6.59%.

As to `Cc1ccc(-c2nc3c4ccccc4[nH]c(=O)n3n2)cc1`, the activation is inactive: 10.5%.

Turning to `CCc1nc2ccc(C(=O)N3CCN(c4cccc(C)c4C)CC3)cc2nc1CC`, the activation is inactive: -23.9%.

Consider `COCCCNC(=O)c1cc2c(=O)oc3ccc(C)cc3c2s1`, for which the activation was inactive: -7.49%.

As to `O=C(c1ccc(CSc2nc3ccncc3n2Cc2ccc(F)cc2)cc1)N1CCCCCC1`, the activation was active: 61.4%.

Take `O=C1CC(c2cccc(O)c2)c2c(nc(SCc3ccccc3F)[nH]c2=O)N1` (centres undefined): the activation is inactive: 2.55%.

As to `CCOc1ccc(C(=O)N(Cc2sccc2C)C2CCS(=O)(=O)C2)cc1` (centres undefined), the activation is inactive: -15.6%.

On to `CCOc1ccc(-c2cc(OC(=O)c3ccc(OC)cc3)c3c(C)oc(C)c3c(=O)c2)cc1`, for which the activation is inactive: -1.42%.

Take `CCOc1ccccc1CNC(=O)c1cc2n(n1)CCCN(Cc1ccc(C)cc1)C2=O`: the activation is inactive: -16.7%.

In the case of `CCc1ccccc1NC(=O)Nc1ccc2c(c1)N(CC)C(=O)c1ccccc1S2`, the activation is inactive: -7.06%.

In the case of `CCOc1ccc(NC(=O)CSc2nc(C)c(C(=O)Nc3ccccc3)c(-c3ccc(Cl)cc3)c2C#N)cc1`, the activation was inactive: 8.3%.

For the compound `CCc1cccc(-n2c(C)nc3c(cnn3-c3ccc(C)c(C)c3)c2=O)c1`, the activation is inactive: 1.7%.

With `COc1cc(OC)c(NC2(c3ccccc3)C(=O)c3ccccc3C2=O)cc1Cl`, the activation is inactive: -52%.

For `CC(=O)Nc1ccc(S(=O)(=O)Nc2cc(C)on2)cc1`, the activation was inactive: -13.1%.

As for `COc1cccc(NC(=O)CSc2nc3cc(OC)c(OC)cc3c3nc(-c4ccccc4)nn23)c1`, the activation is inactive: 1.2%.

Turning to `CCn1c2ccccc2c2cc(CN3CCN(Cc4ccccc4Cl)CC3)ccc21`, the activation was inactive: -31.8%.
